# Assay results as given in paper PMC9144445, “Substrate-Based Design of Cytosolic Nucleotidase IIIB Inhibitors and Structural Insights into Inhibition Mechanism” (Pharmaceuticals, 2022).
# Columns and labels:
# [1] = biological target: T1, human cN-IIIB (Homo sapiens, UniProt Q969T7)
# T1 sequence (Q969T7 1-300): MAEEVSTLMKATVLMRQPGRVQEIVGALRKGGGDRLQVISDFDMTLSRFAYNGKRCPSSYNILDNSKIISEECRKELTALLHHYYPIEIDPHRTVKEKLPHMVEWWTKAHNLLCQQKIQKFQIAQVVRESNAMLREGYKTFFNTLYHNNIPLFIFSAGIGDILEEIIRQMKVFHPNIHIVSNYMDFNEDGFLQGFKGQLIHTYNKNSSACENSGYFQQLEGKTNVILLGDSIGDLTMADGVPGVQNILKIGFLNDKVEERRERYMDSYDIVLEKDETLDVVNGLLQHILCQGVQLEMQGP
# [2] = biological target: T1, human cN-IIIB; assay: IC50 determination for cN-IIIB (MGP assay)
# [3] = biological target: T1, human cN-IIIB; assay: Hydrolysis assay: susceptibility to hydrolysis by cN-IIIB (MGP assay); type: biochemical; design: expressed as a construct of full-length protein (residues 1–300); His6 (N, cleaved yes); ubiquitin-like Smt protein (SUMO) (N, cleaved yes); made in house; details: cN-IIIB 80 nM, 45 min; for Susceptibility to hydrolysis (%): MGP assay
smiles,measurement,setting,value
Nc1nc2c(c(=O)[nH]1)[n+](Cc1ccccc1)cn2[C@@H]1O[C@H](COP(=O)([O-])OP(=O)(O)O)[C@@H](O)[C@H]1O [Compound 6],"Inhibition of cN-IIIB activity, first library (in words)","[1]; m7GMP 100 μM + inhibitor 100 μM, cN-IIIB 80 nM, 45 min",most potent inhibitory effect
same,Inhibition,"[1]; relative percentage of inhibition of cN-IIIB, first-library hits (Figure 2A)",42.2%
same,IC50,[2],52.8 ± 5.7 µM
same,Susceptibility to hydrolysis by cN-IIIB (in words),[3]; compound 100 μM,resistant to hydrolysis
same,Susceptibility to hydrolysis (%),"[3]; library I, compound 100 μM, relative to m7GMP set to 100%",0.0%
same,Susceptibility to hydrolysis (%),"[3]; library II, compound 100 µM",0.0%
